Data published in PubChem BioAssay AID493208 (National Center for Advancing Translational Sciences (NCATS), 2011).
The whole screen tested about 44,000 compounds, of which about 340 (0.77%) were called active. About 5% were inconclusive and are not listed. Calls follow the shape of the dose curve; as a rule, active = well fitted inhibition curve with a large enough effect; inconclusive = small, poorly fitted or top-dose-only effect; inactive = flat fitted curve, though single readings scatter. The list shows a part of the results.

Assay: Acumen qHTS Assay for Inhibitors of the mTORC1 Signaling Pathway in MEF (Tsc2-/-, p53-/-) Cells: Sytravon;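 also: plate controls were DMSO for no effect and rapamycin for full effect; nearly all actives have a fitted effect of over 50% in size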
Conditions: phospho-rpS6 immunofluorescence/PI, 24 h; series mostly up to 38.3 µM; activity change, negative = inhibition: at the top concentration
Summary of the method: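 Tsc2-/-, p53-/- mouse embryonic fibroblasts (empty-vector line) exposed to compound 24 hrs at 37 C, fixed, immunostained for phospho-rpS6 and counterstained with propidium iodide. Acumen laser scanning gives % positive cells from Alexa 488/PI ratio, thresholded using 7.5 nM rapamycin; PI count gives viability.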

Activity change, negative = inhibition, inactive:
COc1ccc(-c2nnc(SCC(=O)Nc3cc(OC)ccc3OC)nc2-c2ccc(OC)cc2)cc1 -10.6%
CCc1cccc(C)c1NC(=O)Cn1c(=O)n(-c2ccc(C)cc2)c(=O)c2c1cnn2C -1.99%
COc1ccc(CCn2c(=O)c3cccnc3n(CC(=O)Nc3c(C)cccc3C)c2=O)cc1OC -8.26%
COc1ccc(OC)c(NC(=O)c2ccc3c(SCC(=O)O)c4c(nc3c2)CCCC4)c1 -5.77%
Cc1cccc(-c2noc(-c3ccc(NCc4ccco4)c([N+](=O)[O-])c3)n2)c1 -12.6%
O=C(c1ccco1)N1CCN(c2nc3c(F)cc(F)cc3s2)CC1 -1.55%
COc1cccc(-c2ccc(-c3noc(-c4ccccc4Br)n3)c(OC)n2)c1 12.6%
CCC(=O)N1c2ccccc2CC1C(=O)NCc1cccc(OC)c1OC (stereo not given) 4.06%
COc1cc(OC)cc(C(=O)Nc2cc(-c3nc4ccccc4[nH]3)ccc2C)c1 -0.294%
COC(=O)c1c(SC)nc2ccccc2c1OCc1ccc(Br)cc1 1.04%
CCOC(=O)C1CCCN(c2nc3c(S(=O)(=O)c4ccc(Br)cc4)nnn3c3ccsc23)C1 (stereo not given) -21%
Cc1ccccc1CNC(=O)c1nn(-c2ccccc2F)nc1CO -3.08%
CCn1nc(-c2ccccc2)c(-c2ccccc2)c(C(=O)Nc2ccc(S(N)(=O)=O)cc2)c1=O 1.25%
COc1cccc2c1Oc1ncccc1N(C(=O)CCC(=O)NCCC(C)C)C2 -0.992%
COc1ccc(C(=O)Nc2ccc(-c3nnc4n3CCCCC4)cc2)cc1 1.08%
O=c1c2sccc2n(Cc2cc(=O)n3ccccc3n2)c(=O)n1-c1cc(F)ccc1F 2.52%
Cc1cc(C)c(NC(=O)CSc2nc3ccccc3c3nc(CCn4cncc4C)nn23)c(C)c1 -15.8%
O=S(=O)(c1ccc(Cl)cc1)c1nc(-c2ccccc2Br)oc1NCc1ccccc1 -0.165%
COc1ccc(CCNC(=O)CSc2nc3nc(C)c(Cc4ccc(C)cc4)c(C)n3n2)cc1OC 2.12%
Cc1ccc(C)c(OCCn2c(C3CC(=O)N(Cc4ccc(F)cc4)C3)nc3ccccc32)c1 (stereo not given) 0.756%
CCN1CCN(C(=O)c2ccc3c(c2)N(Cc2cccc(Cl)c2)C(=O)c2ccccc2S3=O)CC1 (stereo not given) -0.649%
CCOc1ccc2nc(N3CCN(C(=O)c4ccc(S(=O)(=O)CC)cc4)CC3)sc2c1 -5.4%
Cc1ccc(/C=C/C(=O)Nc2nc(-c3cccs3)ns2)cc1 -9.14%
COc1ccc(Cn2c(=O)[nH]c3cc(C(=O)NCCC(C)C)ccc3c2=O)cc1 -0.37%
COc1ccc(CNC(=O)CS(=O)Cc2nc(-c3ccc(OC)c(OC)c3)oc2C)cc1 (stereo not given) 2.06%
Cc1ccc(N(CC(=O)Nc2cccc(Cl)c2C)S(=O)(=O)c2c(C)noc2C)cc1 -1.33%
COC(=O)c1ccc(NC(=O)CN(C)S(=O)(=O)c2ccc(Br)s2)cc1 -5.55%
Cc1nn2c(C)c(C(=O)NCc3ccc(OC(C)C)cc3)cnc2c1-c1ccc(F)cc1 -1.23%
COc1ccc(Cn2ccnc2SCC(=O)Nc2nnc(C)s2)cc1 -14.3%
CCN(CCCNC(=O)c1nn(-c2ccc(C)cc2)c(=O)c2c1c1ccccc1n2C)c1cccc(C)c1 0.657%
Cc1ccc(CNC(=O)c2ccc(N3CCCC3)c(NC(=O)Nc3ccc(F)c(Cl)c3)c2)cc1 0%
Cc1ccc2c(c1)-c1c(c(C(=O)N3CCN(c4cc(C)ccc4C)CC3)nn1C)CS2 3.87%
CCn1c(=O)cc(OCC(=O)N2CCN(c3cccc(C)c3C)CC2)c2ccccc21 -0.297%
Cc1cccc(NC(=O)CN2C(=O)C(c3ccc(F)cc3)=NC23CCCCCC3)c1 0.108%
COc1cccc(CNC(=O)CN2C(=O)COc3ccc(S(=O)(=O)N4CCOCC4)cc32)c1 0.0273%
CC(=O)c1c(C)oc2c1cc(NS(=O)(=O)c1ccc(C(C)(C)C)cc1)c1ccccc12 -2.42%
COc1ccc(NC(=O)Cn2c(=O)c3ccccc3n3nncc23)c(OC)c1 -13.2%
Cc1ccc(CNC(=O)C(C)n2nc(C)c3sc4ccccc4c3c2=O)cc1 (stereo not given) 3.02%
COc1cccc(C(=O)Oc2c(Sc3ccc(C)cc3)c(C)nn2C(C)(C)C)c1OC 1.61%
COC(=O)c1ccccc1NC(=O)CN1C(=O)COc2ccc(Cl)cc21 0.215%
COc1ccc(NC(=O)c2cc(S(=O)(=O)N3CCCC3)ccc2OC)cc1 -0.079%
CC(C)Cc1nn2c(=O)cc(COC(=O)c3ccc(NC(=O)C4CCCCC4)cc3)nc2s1 0%
CCOc1ccccc1NC(=O)c1ccc(F)c(S(=O)(=O)N2CCN(c3ccc(F)cc3)CC2)c1 13%
CCOc1ccc(C(=O)NCC(c2cccs2)S(=O)(=O)c2ccccc2)cc1 (stereo not given) -19.5%
COc1ccc(Nc2nc3ccc(Cl)cc3nc2-n2nc(C)cc2C)cc1 -1.34%
CCOc1ccc(C(=O)NCCSc2c(C)[nH]c3ccccc23)cc1OCC -1.35%
CCOc1ccc(NC(=O)c2cc(C)nc3c2c(C)nn3-c2ccc(C)cc2)cc1 2.74%
Cc1cccc(C(=O)N2CCc3cc(CNC(=O)CSc4ccccc4)ccc32)c1 -19.3%
Cc1ccccc1CNC(=O)CSc1nnc(C)c2c(C)n(-c3ccccc3)nc12 -3.8%
COc1ccccc1CNC(=O)c1cc2c(s1)-c1ccc(Cl)cc1SC2 -1.35%
CCOc1cccc(CC(=O)N2CCc3c([nH]c4ccc(OC)cc34)C2c2ccc(F)cc2)c1OCC (stereo not given) -0.233%
O=C(COc1ccc(Cl)cc1)Nc1nnc(S(=O)(=O)N2CCCCCC2)s1 0%
Cc1ccn2c(Nc3ccc4c(c3)OCCO4)c(-c3ccccc3O)nc2c1 -8.07%
CCCCOc1ccc(C2C(C(=O)Nc3ccccc3OC)=C(C)Nc3nnnn32)cc1OC (stereo not given) -19.3%
CC(=O)N1CCCc2cc(S(=O)(=O)N3CCC(C(=O)Nc4ccc(C)cc4Cl)CC3)ccc21 0.961%
CCN(CC)CCCNC(=O)CCC(=O)NNc1nc2ccccc2c2nc(C)nn12 -5.51%
COc1ccccc1N1CCN(C(CNC(=O)C(=O)NCc2cccnc2)c2cccnc2)CC1 (stereo not given) -0.903%
CCOC(=O)c1c(NC(=O)c2cc(-c3ccc(OC)c(OC)c3)on2)sc(C)c1C 13.9%
Cc1cc(NC(=O)Nc2nnc(N3CCCCCC3)s2)ccc1Br -1.89%
Cc1ccc(-c2nn(-c3ccccc3)c3c2cnc2ccccc23)cc1C 5.01%
